The values below come from PubChem BioAssay AID1159614 (National Center for Advancing Translational Sciences (NCATS), 2016).

About 65 (0.1%) of roughly 45,000 compounds were called active. The call rests on the fitted dose curve; in most records, active means well fitted activation curve with a large enough effect; inconclusive means small, poorly fitted or top-dose-only effect; inactive means no such curve, though single readings can be large or run the other way. This is one part of the list.

The target in the experiment is Galactocerebrosidase (Homo sapiens) (UniProt P54803). Briefly: A Novel Cell-Based Assay to Identify Small Molecules for B -Galactocerebrosidase. Further: 0% is about no effect; nearly all actives have a fitted effect of over 65% in size. As to conditions: 145M-Twi-hGALC-G270D cells (Twitcher mouse brain line with human GALC G270D), HMU-beta-Gal fluorescence, 48 h; series mostly up to 57.5 µM; activation: at the top concentration. The essentials: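 Live 145M-Twi cells (Twitcher mouse brain-derived, GALC-null) stably expressing human GALC-G270D, with a wild-type GALC line, were compound-treated. Residual GALC activity was then read as fluorescence from 0.1 mM final HMU-β-gal at pH 5.2; higher signal means activation.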
Chain of UniProt P54803 (P54803 whole entry, looked up): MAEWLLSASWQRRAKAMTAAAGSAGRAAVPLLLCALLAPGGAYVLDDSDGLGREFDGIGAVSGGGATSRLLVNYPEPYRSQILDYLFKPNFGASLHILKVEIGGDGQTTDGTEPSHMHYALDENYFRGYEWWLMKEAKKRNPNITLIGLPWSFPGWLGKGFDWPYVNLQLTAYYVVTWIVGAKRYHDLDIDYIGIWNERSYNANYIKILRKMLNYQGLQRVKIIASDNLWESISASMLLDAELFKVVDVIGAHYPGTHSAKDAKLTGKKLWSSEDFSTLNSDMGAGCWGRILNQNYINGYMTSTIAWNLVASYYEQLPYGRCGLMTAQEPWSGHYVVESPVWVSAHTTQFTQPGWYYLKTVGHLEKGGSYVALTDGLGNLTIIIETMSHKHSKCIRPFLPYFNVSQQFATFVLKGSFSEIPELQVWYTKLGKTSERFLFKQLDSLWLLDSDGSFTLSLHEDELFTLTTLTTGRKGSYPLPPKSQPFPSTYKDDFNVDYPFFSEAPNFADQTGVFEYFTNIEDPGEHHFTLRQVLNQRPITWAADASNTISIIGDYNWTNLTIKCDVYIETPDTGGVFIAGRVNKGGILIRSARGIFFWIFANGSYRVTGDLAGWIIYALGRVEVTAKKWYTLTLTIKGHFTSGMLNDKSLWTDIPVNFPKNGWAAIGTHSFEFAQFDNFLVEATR
Consider `O=C(NCc1cccnc1)C(=O)NCC(c1cccnc1)N1CCN(c2ccccc2F)CC1` (centres undefined), for which the “activation” value is inactive: -8.67%.
With `O=C(Cn1cc(C(=O)c2ccco2)c2ccccc21)Nc1ccccc1Cl`, the “activation” value is inactive: -20.6%.
Take `COc1ccc(OC)c(CNC(=O)C2CCN(c3ncnc4c3nc3n4CCCCC3)CC2)c1`: the “activation” value was inactive: -2.73%.
As to `O=C(CCn1nc(-c2ccc(Cl)cc2)c2ccccc2c1=O)Nc1ccc(OC(F)(F)F)cc1`, the “activation” value was inactive: -24.5%.
With `O=C(Nc1ccc(F)cc1Cl)C1Cc2ccccc2N1C(=O)c1ccccc1` (centres undefined), the “activation” value is inactive: -5.62%.
As for `Cc1ccc(Cl)cc1N1CCN(C(=O)C2CCN(S(=O)(=O)c3ccc4c(c3)oc(=O)n4C)CC2)CC1`, the “activation” value was inactive: 3.55%.
In the case of `CC(=O)c1cccc(NC(=O)c2nc3ccccc3nc2N2CCCCC2)c1`, the “activation” value was inactive: -19.5%.
Turning to `CCOc1ccc(-c2cn3c(n2)sc2cc(C(=O)NCCc4ccc(OC)c(OC)c4)ccc23)cc1`, the “activation” value is inactive: -2.43%.
Take `CCC(=O)N1CCc2cc(S(=O)(=O)CCC(=O)N3CCN(c4ccc(C(C)=O)cc4)CC3)ccc21`: the “activation” value is inactive: -11.7%.
Regarding `Cc1ccc(C2=NN(CC(=O)NCCc3ccc(Cl)cc3)C(=O)CC2)cc1`, the “activation” value is inactive: -7.59%.
The same measure for `COC(=O)c1cc(S(=O)(=O)NCC2CCN(Cc3ccccc3F)CC2)c[nH]1`: inactive: -0.958%.
Take `Cc1cc(C)c2c(n1)nn1c(C)c(CCC(=O)NCc3ccc(Cl)cc3)c(C)nc21`: the “activation” value is inactive: 1.77%.
As for `CN1C(=O)C2(c3ccccc31)N(c1ccc(F)c(Cl)c1)C(=O)CS2(=O)=O` (centres undefined), the figure is inactive: -30.9%; as for `O=C(Nc1cc(F)ccc1F)c1cc2nc(-c3ccco3)cc(C(F)(F)Cl)n2n1`, inactive: -28.1%.
As for `O=C(CSc1nccn1Cc1ccccc1)Nc1ccc2c(c1)OCO2`, the “activation” value is inactive: -8.29%.
The same measure for `CCC(C)(C)NC(=O)Cn1c(=O)ccc2cc(S(=O)(=O)N3CCC(C)CC3)ccc21`: inactive: -3%; for `CCOC(=O)N1CCC(NC(=O)c2ccc3c(c2)N(Cc2cc(C)ccc2C)C(=O)c2ccccc2S3=O)CC1` (centres undefined): inactive: -13.9%.
In the case of `COc1ccc(CCNC(=O)CCn2c(=O)c3cccn3c3cccnc32)c(OC)c1OC`, the “activation” value is inactive: 8.32%.
The same measure for `Cc1cccc(NC(=O)N2CCC(n3c(C)nc4cccnc43)CC2)c1`: inactive: -17.6%.
Consider `CN(C(=O)c1cc2c(=O)n3ccccc3nc2n1C)c1ccccc1`, for which the “activation” value was inactive: -9.13%.
Consider `CCOc1cc(C(=O)NCCc2csc(-c3ccc(C)cc3)n2)cc(OCC)c1OCC`, for which the “activation” value was inactive: -1.49%.
In the case of `CC(=O)Nc1nnc(SCc2cc(=O)c3cccc(Cl)c3[nH]2)s1`, the “activation” value is inactive: -11.1%.
`CCOc1ccc(CCNC(=O)Cn2nnc(-c3ccc(C(F)(F)F)cc3)n2)cc1OCC`: the “activation” value is inactive: -15%.
The same measure for `CCOC(=O)c1c(NC(=O)CSc2nc(-c3ccccc3)cc(C(F)(F)F)n2)sc(C)c1C`: inactive: -14.1%; for `Cn1cc(CCCC(=O)NCc2ccccc2Cl)c2ccccc21`: inactive: -3.23%.
For the compound `Cc1ccc(CNc2ccc(-c3nc(-c4ccccn4)no3)cc2[N+](=O)[O-])cc1`, the “activation” value was inactive: -3.05%.
For the compound `O=C(c1ccc([N+](=O)[O-])cc1)N1CCN(c2ccc(Nc3ccccc3)nn2)CC1`, the “activation” value is inactive: -7.35%.
As for `CCOc1ccc(CCNC(=O)CN2C(=O)c3cccnc3Oc3ccc(Cl)cc32)cc1`, the figure is inactive: -9.36%.
The same measure for `CCOc1ccc(OCC)c(Nc2cc(C)nc3nc(-c4ccco4)nn23)c1`: inactive: -5.31%.
As for `CC(=O)N1c2ccc(S(=O)(=O)N3CCCCCC3)cc2CC1C(=O)NCc1ccccc1F` (centres undefined), the “activation” value was inactive: -10.8%.
For the compound `CCCCN(CCCC)CCNC(=O)c1cn(C)c2ccc(S(=O)(=O)N3CCCC3)cc2c1=O`, the “activation” value was inactive: -0.234%.
For the compound `CCOC(=O)c1c(S(=O)(=O)N2CCC(C(=O)Nc3ccc(OCC)cc3)CC2)c(C)n(C)c1C`, the “activation” value was inactive: -13.3%.
As for `Cc1c(NC(=O)Nc2ccc(F)c(Cl)c2)c(=O)n(-c2ccccc2)n1C`, the “activation” value was inactive: -5.33%.
As for `CCc1cnc2c(c1SCC(=O)N1CCC(C)CC1)c(=O)n(C)c(=O)n2C`, the “activation” value was inactive: -5.39%.
The same measure for `Cc1nn(CCC(=O)N2CCN(c3ccccc3)CC2)c(C)c1S(=O)(=O)N1CCCC1`: inactive: -11%.
Take `COc1ccc(OC)c(NC(=O)N2c3ccccc3Sc3ccccc32)c1`: the “activation” value is inactive: -1.88%.
As for `Cc1ccc(OCc2nc(-c3ccc(C(=O)N4CCN(c5ccccc5)CC4)cc3)oc2C)cc1`, the figure is inactive: -19.7%; as for `O=C(NCc1ccccc1Cl)c1ccc(Nc2nc3ccccc3n3nnnc23)cc1`, inactive: -20.2%.
In the case of `CCc1ccc(C2c3c(-c4cc(C)ccc4O)n[nH]c3C(=O)N2Cc2cccnc2)cc1` (centres undefined), the “activation” value was inactive: -12.4%.
As for `CSc1ccc(CNC(=O)c2cc3cc(S(=O)(=O)N4CCCCC4)ccc3n2C)cc1`, the figure is inactive: -5.48%.
Take `CCCCC(=O)OC1=C(C(=O)c2ccccc2)N(CC)S(=O)(=O)c2ccccc21`: the “activation” value is inactive: 1.92%.
As for `O=C(Nc1cccc(-c2nc3ccccc3o2)c1)c1cccc(Br)c1`, the “activation” value was inactive: -10.7%.
On to `CCOC(=O)c1c(Nc2cc(C)cc(C)c2)nnc(-c2ccccc2)c1-c1ccccc1`, for which the “activation” value is inactive: 7.9%.
In the case of `C[C@H](N)C(=O)N[C@@H](C)C(=O)NC1[C@H]2CN(c3nc4c(cc3F)c(=O)c(C(=O)O)cn4-c3ccc(F)cc3F)C[C@@H]12` (some centres undefined), the “activation” value is inactive: -11.8%.
For `COc1ccc(Cn2ccc3nc(C)c(C(=O)Nc4ccc(OC(F)(F)F)cc4)cc3c2=O)cc1`, the “activation” value is inactive: -15.2%.
The same measure for `O=C(NCC(c1cccnc1)N1CCc2ccccc2C1)C(=O)Nc1ccccc1` (centres undefined): inactive: -21%.
`COc1ccccc1CNS(=O)(=O)c1ccc(F)c(C(=O)Nc2cc(Cl)ccc2OC)c1`: the “activation” value is inactive: -14.8%.
As for `COc1ccccc1N1CCN(S(=O)(=O)c2c(C)nc3sc(C)c(C)n3c2=O)CC1`, the “activation” value was inactive: -11.3%.
As for `CC1CCN(S(=O)(=O)c2ccc3nc(Nc4ccc(C#N)cc4)ccc3c2)CC1`, the figure is inactive: -8.02%; as for `COc1cccc(CNC(=O)C2CCN(S(=O)(=O)N3CCC(C)CC3)CC2)c1`, inactive: -15.1%.
Regarding `COc1cccc2c1Oc1ncccc1N(C(=O)Nc1cccc(Cl)c1)C2`, the “activation” value is inactive: -10.4%.
The same measure for `CCOc1ccccc1NC(=O)CN1c2ccccc2S(=O)(=O)c2ccccc21`: inactive: -14.4%; for `Cc1ccc(CNC(=O)c2cc(S(=O)(=O)N3CCCCCC3)cn2C)cc1`: inactive: -11.3%.
For the compound `CCOc1ccc(NS(=O)(=O)c2ccc3[nH]cc(C(=O)NCc4ccccc4)c(=O)c3c2)cc1`, the “activation” value was inactive: -14.4%.
For `Cc1cccc(CNC(=O)c2ccc3c(c2)N(C)C(=O)C2CCCCN32)c1` (centres undefined), the “activation” value was inactive: -0.99%.
As for `COc1ccc(CNS(=O)(=O)c2cnc(N)nc2)cc1`, the figure is inactive: -10.8%; as for `CCCCC(=O)OC1=C(C(=O)c2ccccc2)N(C)S(=O)(=O)c2ccccc21`, inactive: -12.5%.
As to `Cn1nc(-c2ccc(C(=O)Nc3cccc(C(F)(F)F)c3)cc2)c2ccccc2c1=O`, the “activation” value is inactive: -7.38%.
Take `CCCCCCCCNC(C)C(O)c1ccc(SC(C)C)cc1` (centres undefined): the “activation” value is inactive: -18.3%.
